Experimental data from the supplement of paper PMC3334620.
Over roughly 33,000 sequences, “E-score (-0.5 to 0.5)” has its median near -0.032; the highest 2% begin near 0.36. The list shows a part of the results.

target: T1, Sko1 (UniProt Q02100); assay: PBM E-score (8-mer binding enrichment) (E-score (-0.5 to 0.5)); higher = stronger / more preferred TF binding; most listed sequences are background and not binding sites; conditions: protein concentration: 200 nM; construct: GST-full length
T1 sequence: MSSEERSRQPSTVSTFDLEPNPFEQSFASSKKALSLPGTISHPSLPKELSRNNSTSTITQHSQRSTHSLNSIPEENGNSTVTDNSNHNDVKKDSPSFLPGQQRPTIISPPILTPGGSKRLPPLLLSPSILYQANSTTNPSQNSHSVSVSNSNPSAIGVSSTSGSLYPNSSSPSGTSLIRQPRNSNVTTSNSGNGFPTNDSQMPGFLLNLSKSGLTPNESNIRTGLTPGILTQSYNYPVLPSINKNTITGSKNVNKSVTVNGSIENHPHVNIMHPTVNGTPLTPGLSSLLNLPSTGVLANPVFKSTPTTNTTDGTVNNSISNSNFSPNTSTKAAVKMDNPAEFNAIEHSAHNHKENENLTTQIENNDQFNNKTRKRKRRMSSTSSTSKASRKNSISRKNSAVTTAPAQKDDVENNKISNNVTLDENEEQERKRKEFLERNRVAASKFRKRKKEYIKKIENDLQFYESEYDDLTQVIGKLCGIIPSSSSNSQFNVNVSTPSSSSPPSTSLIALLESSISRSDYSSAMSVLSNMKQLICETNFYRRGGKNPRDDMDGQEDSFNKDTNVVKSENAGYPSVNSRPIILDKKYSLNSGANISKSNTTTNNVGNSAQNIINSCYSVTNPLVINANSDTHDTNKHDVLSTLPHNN
How it was run: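 For each ungapped eight-base word taken together with its reverse complement, the Universal PBM Analysis Suite assigned an E-score. Binding data came from GST-tagged yeast transcription factors, applied at about 100-200 nM, on universal all-10-mer Agilent arrays made double-stranded by primer extension. Fluorescent anti-GST marked bound protein, and scans were normalised with masliner.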

| Sequence | PBM E-score |
| --- | --- |
| AGGTTACC | 0.156 |
| ATGAAACC | -0.0465 |
| AGTCCCAA | -0.196 |
| CGGAGTTC | 0.0475 |
| AATTGTGA | 0.233 |
| TGTGAGAA | -0.0232 |
| ACGGGATC | 0.112 |
| TCCACCCA | -0.166 |
| GAGAGTCA | -0.0313 |
| GCACTGAA | -0.0738 |
| ATGTAGTA | 0.254 |
| ATCAGCTC | 0.0812 |
| TAAGTCTA | -0.122 |
| CTAACCCA | 0.058 |
| CGGCCCCC | -0.424 |
| TGTTGAAA | 0.0764 |
| CTTTAGGA | -0.113 |
| AAGCTGTG | 0.00242 |
| ATGAGCTA | 0.169 |
| GGGATTTA | -0.0501 |
| ACCATCAT | 0.09 |
| GTTAAATA | 0.167 |
| GAACGGCA | -0.116 |
| CAGCACGA | -0.16 |
| CACGTAAC | 0.449 |

| Sequence | PBM E-score |
| --- | --- |
| AGTATGTG | 0.0562 |
| GCCGCTAC | -0.0843 |
| TCTTTGAA | 0.0783 |
| CACTATCA | 0.0733 |
| GAACAAAA | 0.122 |
| CAGTTCAA | 0.0285 |
| AACCAAAA | -0.00733 |
| ATTTCTAG | 0.139 |
| ACCCAGGA | -0.154 |
| CCCACATA | -0.0459 |
| CCAGCACA | -0.11 |
| CGCTCCGC | -0.289 |
| TAGGCTAA | -0.0649 |
| GTAGTGAA | 0.2 |
| CACGCGAA | 0.202 |
| AATCTGCA | -0.034 |
| CACAAGTG | -0.0741 |
| ATGATCGG | -0.117 |
| ACGGTTAA | 0.0279 |
| GTGTATGA | 0.224 |
| ATCCTTTA | -0.00164 |
| ATTTATGA | 0.114 |
| AGAGGTAT | 0.0913 |
| CGTTTGAC | 0.0281 |
| AAATTATC | 0.295 |

| Sequence | PBM E-score |
| --- | --- |
| GACGTAAC | 0.467 |
| GTGTAGGA | 0.057 |
| AGATTGAC | 0.17 |
| GAAGGATA | 0.0157 |
| AGCAGAAG | -0.127 |
| ACAGGCGC | -0.225 |
| TCGTATCA | 0.241 |
| GAGCGCAA | -0.257 |
| GCGGGTTA | -0.116 |
| CCGCGAGA | -0.214 |
| CGAGTCAC | -0.108 |
| ATCTAGAT | -0.115 |
| AGGTTTGG | -0.0203 |
| ACAAGTCC | -0.262 |
| CAGTGCCA | -0.302 |
| CTCTTAGC | -0.0935 |
| ATCAGTCA | 0.119 |
| ATGAACTC | -0.00107 |
| GAATAACA | 0.181 |
| GACCACTA | 0.0499 |
| AGGAGAAA | -0.2 |
| CTCTATGA | 0.123 |
| AAATTGCG | 0.261 |
| AATAGACA | -0.0972 |
| GTGTACAA | 0.237 |

| Sequence | PBM E-score |
| --- | --- |
| GGCTTTAC | 0.0175 |
| ACCGGAGT | -0.224 |
| ACGCTCCC | -0.115 |
| AAGCCATA | 0.0359 |
| TCTTTTCA | 0.058 |
| GAACGGTC | -0.323 |
| AATATATC | 0.213 |
| ATTACCAC | 0.148 |
| AGGAAAAT | 0.0723 |
| AACTGACA | 0.183 |
| GAAGCTTA | -0.0146 |
| CTATGTAC | 0.0843 |
| CGGCACCA | -0.14 |
| GAGACGGC | -0.116 |
| GATTAAGA | 0.138 |
| GGATCAGA | -0.228 |
| AATACCAA | 0.112 |
| AACTAATC | 0.121 |
| AACAAGAG | -0.0807 |
| CATGCCAC | -0.0723 |
| AAAATTAA | 0.103 |
| CTTTCACA | 0.101 |
| GCGGCCTA | -0.36 |
| CTACTCAG | -0.28 |
| TACGTGAA | 0.425 |

| Sequence | PBM E-score |
| --- | --- |
| CTAAGGGA | -0.0567 |
| AGCGGTCC | -0.19 |
| AATGCCTG | -0.199 |
| ATAAGTTC | -0.0277 |
| CCCGACGG | -0.0365 |
| TATCGCCA | 0.0834 |
| CATCACAA | 0.193 |
| ACAAGTCT | -0.158 |
| TATCGACA | -0.0887 |
| AGACATAT | 0.266 |
| CACTCGTC | 0.204 |
| GAACTACA | -0.00635 |
| GTGATCCA | -0.14 |
| AAAGCCGG | -0.0574 |
| CGACATCA | 0.355 |
| AGCGGCGC | -0.308 |
| AGATAGTA | 0.0975 |
| GGGAGCCA | -0.292 |
| GCCCTTAA | -0.0166 |
| GAAGGGTC | -0.123 |
| CGGGCAAC | -0.234 |
| GTACCACA | 0.188 |
| CATAATAG | 0.116 |
| CGACCCGC | -0.141 |
| CCATATCA | 0.135 |

| Sequence | PBM E-score |
| --- | --- |
| AGCTTCAT | -0.0974 |
| ACGCCTGG | 0.0602 |
| GTTTTTTA | 0.145 |
| GCTTCTCA | -0.269 |
| CCGGTAGG | -0.244 |
| AGTCTTTC | -0.185 |
| AACTACTC | -0.0155 |
| CCTCGGGA | -0.225 |
| CACTCGGC | -0.243 |
| AACTTTAC | 0.171 |
| ATGCACCA | 0.0408 |
| AAGCGAAT | 0.145 |
| GGATACCC | -0.197 |
| CGCGTCCA | 0.115 |
| CGCCTTTC | -0.178 |
| ATAAATGA | 0.29 |
| TAATTGAA | 0.141 |
| AATCCCAT | -0.0408 |
| CGAGATCG | -0.116 |
| GATCCCGC | -0.191 |
| AGACGAAA | 0.199 |
| CCAGCGCC | -0.236 |
| CCGAGTCC | -0.175 |
| AAGATGCA | 0.132 |
| GGTAGTAA | -0.0858 |

| Sequence | PBM E-score |
| --- | --- |
| AAGGTCGA | -0.0566 |
| GGTCGAAC | -0.0711 |
| AGATTGCG | 0.188 |
| GTATCTCA | 0.243 |
| GCGCGCTA | 0.0617 |
| CACCGTCA | 0.233 |
| CTGGGAAA | -0.0767 |
| AGTCATAA | 0.0121 |
| CAGAGCTG | -0.238 |
| AATCAGAC | 0.115 |
| AGATGACA | 0.256 |
| TCATCTAA | 0.273 |
| GGAGAAAA | -0.0864 |
| TATCCGGA | -0.15 |
| CCACAACG | 0.103 |
| CATCCACG | 0.144 |
| CAATCGTG | -0.029 |
| CCGGGGCG | -0.302 |
| GCCATGCA | -0.00453 |
| ATTCTTTA | 0.161 |
| GCCGTAAA | 0.107 |
| GTCTAGTA | 0.168 |
